Measured values published in the supplement of paper PMC3334620.
Whole data set: some 33,000 sequences, median “E-score (-0.5 to 0.5)” near -0.036, cut for the highest 2% near 0.37. The list shows a part of the results.

Molecular target: T1, Yer064c (UniProt P40041)
T1 sequence: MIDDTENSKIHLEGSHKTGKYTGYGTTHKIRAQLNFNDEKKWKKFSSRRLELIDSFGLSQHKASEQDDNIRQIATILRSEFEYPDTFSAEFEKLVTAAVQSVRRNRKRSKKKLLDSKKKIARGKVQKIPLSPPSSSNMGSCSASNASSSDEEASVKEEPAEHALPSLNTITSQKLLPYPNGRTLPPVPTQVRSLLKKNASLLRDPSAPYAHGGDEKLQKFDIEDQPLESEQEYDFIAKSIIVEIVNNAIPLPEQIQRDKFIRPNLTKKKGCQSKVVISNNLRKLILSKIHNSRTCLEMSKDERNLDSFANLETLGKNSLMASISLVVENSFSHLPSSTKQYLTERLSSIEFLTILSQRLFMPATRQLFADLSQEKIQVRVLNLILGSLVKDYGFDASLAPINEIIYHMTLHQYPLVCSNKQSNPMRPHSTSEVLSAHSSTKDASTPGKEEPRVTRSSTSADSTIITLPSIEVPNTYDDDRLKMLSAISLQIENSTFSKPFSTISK
Assay: PBM E-score (8-mer binding enrichment) (E-score (-0.5 to 0.5)); higher = stronger / more preferred TF binding; most listed sequences are background and not binding sites
Details: protein concentration: 200 nM; construct: GST-full length
Procedure, shortened: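 Detection of bound protein used fluorescent anti-GST, with scans normalised by masliner. The proteins were GST-tagged yeast transcription factors applied at about 100-200 nM to universal all-10-mer Agilent arrays made double-stranded by primer extension. Each ungapped eight-base word, pooled with its reverse complement, was scored with an E-score from the Universal PBM Analysis Suite.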

| Sequence | PBM E-score |
| --- | --- |
| ATAGACAG | 0.104 |
| CATTCCGC | -0.178 |
| CTCGGTTC | -0.136 |
| AGAGTGCT | -0.0672 |
| AAGTATTC | -0.0935 |
| AACGCCTT | -0.207 |
| ATTTGGCC | -0.0365 |
| CAGCTCAA | -0.00537 |
| CGGCGTTA | -0.245 |
| ATCATAAT | 0.223 |
| ATTGAGCC | 0.221 |
| CCTCCTAA | 0.0396 |
| CAGTTTGC | -0.0801 |
| CATAAAGG | 0.0681 |
| CAGTCTCC | 0.211 |
| GATAGACC | -0.01 |
| ATAAAAAC | 0.164 |
| CACCAGGC | -0.109 |
| CACCTAAG | 0.112 |
| TATAAGGA | 0.108 |
| TAAGTAGA | 0.077 |
| CCCTTCAG | -0.0755 |

| Sequence | PBM E-score |
| --- | --- |
| ATCTCAGA | -0.113 |
| CACCGATA | -0.0639 |
| AGTTATGG | 0.005 |
| ATGATGCC | -0.0236 |
| ATTCACGC | 0.132 |
| GAAGCCCA | -0.134 |
| GATGTACC | -0.126 |
| AACCGGGC | -0.143 |
| GACTACGA | 0.413 |
| AGCTGTAA | 0.0835 |
| CCGGTGCA | -0.339 |
| TATGGTCA | 0.157 |
| CCTTTGAG | 0.0117 |
| CTCATATC | 0.188 |
| CCGGCAGG | -0.176 |
| AGTTTAAA | 0.104 |
| ATGAGGGA | -0.0238 |
| AGATGTTG | -0.179 |
| AGCTAGCA | -0.123 |
| ACAGTTAT | -0.0189 |
| GCAGAAGC | -0.307 |
| GACGCTCA | -0.0271 |

| Sequence | PBM E-score |
| --- | --- |
| AGGTCGGG | -0.125 |
| GACCCCAA | -0.18 |
| CCATGTGC | -0.0296 |
| AATGCAGT | 0.0561 |
| ACTGGATG | -0.0534 |
| AGCCAGGG | 0.0643 |
| AGCCTCTC | -0.358 |
| CAGCAGCG | -0.0778 |
| CCTGCGAC | 0.00067 |
| CCACACCG | -0.0031 |
| CGTAAGCA | -0.394 |
| AGATAAAC | -0.00183 |
| CAGTCCAG | 0.0165 |
| CGGGCCAG | -0.188 |
| CTTGGGGC | -0.17 |
| AAGACATG | -0.0639 |
| CAGCGCAA | -0.0584 |
| GGCCCAAA | -0.283 |
| ACTGGACC | -0.00642 |
| ATCATGAA | 0.266 |
| GAATGTGC | -0.135 |
| AAAGTCAG | 0.323 |

| Sequence | PBM E-score |
| --- | --- |
| CTTACGAC | 0.0574 |
| CGCATTAG | 0.0905 |
| AAAACAAG | -0.00591 |
| CGTGCGAG | 0.00932 |
| CAAACTGC | 0.0135 |
| GCCCCTAA | -0.237 |
| AGCACGTA | -0.21 |
| CAGTGTGG | -0.225 |
| GATACGCC | -0.269 |
| ACGCGTAC | -0.0595 |
| AAGCGCTA | -0.0894 |
| AATTAACT | 0.0949 |
| AAGCGTAT | -0.234 |
| CTCTACGC | 0.0654 |
| CGCGGGCA | -0.0282 |
| CCTCGCCG | -0.246 |
| CAGCCTAC | -0.0538 |
| ACGGGCGC | -0.354 |
| GCAATACA | 0.0509 |
| CAAGATGC | 0.0265 |
